Measured values from PMC4336329 (PLoS ONE, 2015).
The campaign covered roughly 310,000 compounds. About 14,000 (4.5%) showed an effect of 50% or more. Effects have a minus sign here. Some of the results follow.

Each compound was assayed against human ether-à-go-go-related gene (hERG) potassium channel (human, UniProt Q12809) (assay: primary screen, population patch clamp on CHO cells stably expressing hERG).
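Note: peak tail current of the secondary pulse compared with the same well before compound.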

Chain of human ether-à-go-go-related gene (hERG) potassium channel (Q12809 whole entry, looked up): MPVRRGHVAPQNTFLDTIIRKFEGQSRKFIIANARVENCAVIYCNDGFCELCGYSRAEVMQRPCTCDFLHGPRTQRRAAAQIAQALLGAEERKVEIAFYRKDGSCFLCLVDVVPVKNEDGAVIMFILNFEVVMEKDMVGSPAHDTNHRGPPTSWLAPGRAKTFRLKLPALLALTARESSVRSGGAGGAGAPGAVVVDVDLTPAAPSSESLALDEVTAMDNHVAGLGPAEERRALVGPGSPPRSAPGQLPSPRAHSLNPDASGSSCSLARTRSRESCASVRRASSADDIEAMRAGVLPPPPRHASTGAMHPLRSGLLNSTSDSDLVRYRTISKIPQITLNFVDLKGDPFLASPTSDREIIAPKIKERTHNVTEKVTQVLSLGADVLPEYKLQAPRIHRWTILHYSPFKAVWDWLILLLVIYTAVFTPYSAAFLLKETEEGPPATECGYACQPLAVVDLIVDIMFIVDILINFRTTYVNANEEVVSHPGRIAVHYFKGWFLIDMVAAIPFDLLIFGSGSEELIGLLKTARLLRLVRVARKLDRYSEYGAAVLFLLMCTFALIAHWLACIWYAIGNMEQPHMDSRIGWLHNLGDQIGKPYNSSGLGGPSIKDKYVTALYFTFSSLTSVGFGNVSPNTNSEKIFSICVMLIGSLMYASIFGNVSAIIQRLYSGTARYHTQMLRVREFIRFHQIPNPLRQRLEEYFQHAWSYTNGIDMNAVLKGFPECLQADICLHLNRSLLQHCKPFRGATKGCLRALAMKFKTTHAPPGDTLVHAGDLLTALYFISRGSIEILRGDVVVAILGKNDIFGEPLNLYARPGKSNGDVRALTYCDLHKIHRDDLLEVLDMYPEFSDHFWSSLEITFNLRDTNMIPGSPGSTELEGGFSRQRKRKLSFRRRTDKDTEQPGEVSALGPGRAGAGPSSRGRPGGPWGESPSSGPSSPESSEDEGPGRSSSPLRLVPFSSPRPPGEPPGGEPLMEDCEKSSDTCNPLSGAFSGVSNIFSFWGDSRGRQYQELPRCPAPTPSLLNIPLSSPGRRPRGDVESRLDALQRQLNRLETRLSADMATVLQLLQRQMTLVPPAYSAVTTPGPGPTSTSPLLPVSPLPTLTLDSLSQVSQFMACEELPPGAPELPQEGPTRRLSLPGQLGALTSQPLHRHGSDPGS

Row | SMILES | hERG current change (%, negative = inhibition) at 10uM
1 | CCOc1ccc(NC(=O)CN(C)C(=O)CCNC(=O)c2ccc(Br)cc2)cc1OCC | -34.2%
2 | CC(=O)Nc1ccc(S(=O)(=O)NCC(=O)OCC(=O)Nc2sccc2C(N)=O)cc1 | 9.15%
3 | Cc1cc(C)nc(CCNC(=O)c2cc(COc3c(C)cccc3C)on2)n1 | -12.7%
4 | CCOC(=O)COc1ccc(C2NC(C(=O)O)CS2)cc1 (centres unmarked) | 20.3%
5 | CC(Oc1ccc(Cl)cc1)c1ccn[nH]1 (centres unmarked) | 20.9%
6 | CO/N=C(/c1nonc1N)N1CCN(c2ccc([N+](=O)[O-])cc2)CC1 | -11.5%
7 | CN(Cc1cnn(C)c1)C(=O)c1cc2ccccc2oc1=O | -0.0112%
8 | CC1CCCCC1NC(=O)COc1ccccc1C#N (centres unmarked) | -1.85%
9 | CC1=C(C)CC(C(=O)N2CCN(C/C=C/c3ccccc3)CC2)C(C(=O)O)C1 (centres unmarked) | 8.99%
10 | C=C1C(=O)[C@@]23C[C@H]4[C@@H]5[C@@]6(C)CCC[C@@]57[C@@H]2[C@@H](O)[C@@H]1C[C@H]3[C@H]7N4C6 | 14.7%
11 | CCCNC(=O)CN(C1CCCCC1)S(C)(=O)=O | 30%
12 | CCCNC(=S)Nc1ccc(F)cc1F | -12.6%
13 | O=C(CN1CCN(C(C(=O)Nc2ccc(F)cc2)c2ccccc2)CC1)NC1CC1 (centres unmarked) | -27.8%
14 | O=C(c1cn(-c2ccccc2)nc1-c1ccncc1)n1nnc2ccccc21 | 7.88%
15 | COc1cccc(C(=O)Nc2c3c(nn2-c2cccc(C)c2C)CS(=O)C3)c1OC (centres unmarked) | -2.43%
16 | Cc1ccc(/C=C/S(=O)(=O)NCCC(=O)NCc2ccc(F)cc2)cc1 | -22.9%
17 | COC(=O)c1cc(C)sc1NC(=O)c1cccnc1 | 13.6%
18 | CCN(CC)CC(=O)Nc1scc2c1c(=O)oc1ccccc12 | 9.72%
19 | Cc1cc(Br)c(S(=O)(=O)NCc2cccnc2)cc1C | -1.6%
20 | CN(C)S(=O)(=O)c1ccc(Cl)c(C(=O)NNC(=O)c2ccc3c(c2)OCO3)c1 | 3.82%
21 | COC(=O)c1sc2nc(N)c(C#N)cc2c1N | 31.1%
22 | Cc1nc(N2CCN(C(=O)c3ccco3)CC2)c2c3c(sc2n1)CCC3 | -54.8%
23 | O=C(Nc1cccc(C(F)(F)F)c1)c1cccnc1N1CCN(CCO)CC1 | -63.8%

Row | SMILES | hERG current change (%, negative = inhibition) at 10uM
24 | Cc1sc2ncn(CC(=O)NCc3ccco3)c(=O)c2c1-c1ccc(F)cc1 | -1.88%
25 | COc1ccc2c(c1)C=CC1(O2)N(CCO)c2ccccc2C1(C)C (centres unmarked) | 4.64%
26 | O=C(c1cccc([N+](=O)[O-])c1)c1ccc2c(c1)C(=O)NC2=O | -11.5%
27 | CC1(C)CC(NC(=O)CC(c2ccccc2)c2ccccc2)CC(C)(C)N1 | -2.97%
28 | CCOC(=O)C(Cc1cc(C(C)=O)ccc1OC(C)C)C(=O)OCC | -10.8%
29 | O=C(NC(C(=O)c1ccccc1)N1CCCCCC1)c1ccco1 (centres unmarked) | -5.45%
30 | Fc1ccc(Cn2c(SCc3ccc(F)c(F)c3)nnc2C(F)(F)F)cc1 | -23.1%
31 | COc1ccc(CN2CN=C(Nc3nc4ccccc4s3)NC2)cc1 | -20.2%
32 | Cc1ccc(NC(=S)N2CCN(S(C)(=O)=O)CC2)cc1 | 28.1%
33 | Cc1ccc(C(C)NC(=O)Cc2cccs2)cc1C (centres unmarked) | -44.2%
34 | O=C(OCc1cc2ccccc2[nH]c1=O)c1cccc([N+](=O)[O-])c1 | 1.51%
35 | Clc1ccccc1CSc1nc2ccncc2[nH]1 | -6.61%
36 | CCCCC(=O)Nc1cc(N(C)C)nc2ccccc12 | -66.3%
37 | CCOC(=O)c1c(C)n(C)c2c1cc(OC(C)=O)c1ccccc12 | 19.7%
38 | COc1cccc(NC(=O)C2Cc3ccccc3CN2C(=O)c2ccco2)c1 (centres unmarked) | -4.57%
39 | Cc1ccc(CNC(=O)CCC2CCCN(C(=O)CCC(F)(F)F)C2)o1 (centres unmarked) | 3.62%
40 | COc1ccccc1C1=NOC(COC(=O)c2ccc([N+](=O)[O-])cc2)C1 (centres unmarked) | -2.27%
41 | O=C(CCCN1C(=O)CCC1=O)Nc1ccc(Br)cc1F | -5.28%
42 | C[C@@H]1C=CC(=O)O[C@@H]1c1ccc(Cl)cc1 | 0.254%
43 | CCOC(=O)c1ccc(S(=O)(=O)NCC(C)(C)N2CCOCC2)cc1.Cl | 14.3%
44 | O=C1C=C(O)C(n2cncn2)C(c2ccc(F)cc2)C1 (centres unmarked) | 17.2%
45 | CCCCc1nnc(NC(=O)C2=COCCO2)s1 | 29.2%
46 | c1ccc(-c2onc(-c3ccco3)c2-c2ccc3c(c2)OCO3)cc1 | 2%

Row | SMILES | hERG current change (%, negative = inhibition) at 10uM
47 | COc1ccc(C(C)(C)NC(=O)C2CCC(=O)N(C3CC3)C2)cc1OC (centres unmarked) | 15.6%
48 | NC(=S)NNC(=O)Nc1cccc(Cl)c1 | 9.41%
49 | O=[N+]([O-])c1cc(Cl)cc(/C=N/NC(=S)Nc2ccc(S(=O)(=O)N3CCOCC3)cc2)c1O | 14.3%
50 | Cc1cc(C)n(-c2cc(N3CCN(S(=O)(=O)c4ccc(C)c(C)c4)CC3)ccc2[N+](=O)[O-])n1 | 15%
51 | O=C(c1cc(F)cc2c1OCOC2)N1CCN(c2ccc(F)cc2)CC1 | -16%
52 | CCn1cc(CCCC(=O)NCc2cccc(OC)c2)c2ccccc21 | 6.59%
53 | CCNC(=S)N1CCC(c2nc3cc(C)c(C)cc3[nH]2)CC1.O=C(O)C(=O)O | -13.2%
54 | C=C[C@@H]1c2cc(C)ccc2N(S(=O)(=O)c2ccc(C)cc2)[C@H](c2ccccc2C(F)(F)F)C1(C#N)C#N | 7.01%
55 | C[C@@H]1CC2OC(=O)[C@@]3(C)C(=O)CC[C@@](C)(C23)[C@@]1(O)CCc1ccoc1 (some centres unmarked) | -19.8%
56 | CNC(=O)c1c(Cl)cnn1-c1ccc(F)cc1 | 7.89%
57 | COCCn1c(SCC(=O)Nc2c(C)n(C)n(-c3ccccc3)c2=O)nc2ccccc2c1=O | -19.6%
58 | Cc1nn(C(C)CC(=O)O)c(C)c1C (centres unmarked) | 10.2%
59 | Cc1ccc(Cl)c(Cn2cnc3c(cnn3C(C)(C)C)c2=O)c1F | -9.61%
60 | CC(Oc1ccc(C(C)(C)C)cc1)C(=O)NC1CC(C)(C)NC(C)(C)C1 (centres unmarked) | 7.54%
61 | COc1ccc(N(C)C(=O)c2oc(=O)c3ccccc3c2-c2ccc(C)cc2)c(OC)c1 | -4.67%
62 | CC(C)Oc1ccc(Cc2c(O)nc(NCCCN(C)C)[nH]c2=O)cc1 | 7.19%
63 | N#CCCN1CCN(C(CNS(=O)(=O)c2ccc(Cl)cc2)c2ccccc2)CC1 (centres unmarked) | -34.2%
64 | C1CSC2(N1)C1CC3CC(C1)CC2C3.Cl (centres unmarked) | 8.27%
65 | O=c1cc(-c2ccccc2)n(S(=O)(=O)c2ccc3ccccc3c2)o1 | -3.67%
66 | CCCCC1=NN(C(=O)c2ccncc2)C(O)(C(F)(F)F)C1 (centres unmarked) | 23.1%
67 | C(=N\Nc1ncnc2ccccc12)/c1ccccc1 | 0.173%
68 | Cc1cc(C)c2c(n1)sc1c(N3CCN(CCO)CC3)ncnc12 | 2.49%
69 | O=C(NOCc1ccccc1)c1ccc(Cl)cc1 | -17%

Row | SMILES | hERG current change (%, negative = inhibition) at 10uM
70 | Nc1nc2ccccc2cc1S(=O)(=O)c1ccccc1 | 16%
71 | Cn1c(CC(=O)Nc2ccccc2Cl)nnc1SCC(=O)NC1CCCCC1 | 14.3%
72 | Cl.OC(c1ccc(Cl)cc1)C(CN1CCOCC1)c1ccccc1 (centres unmarked) | 6.54%
73 | Cn1cc([N+](=O)[O-])c(C(=O)Nc2cc(Oc3ccccc3)cc([N+](=O)[O-])c2)n1 | 11.5%
74 | COC(=O)C1CC(O)CN1C(=O)Nc1ccccc1 (centres unmarked) | -26%
75 | Cc1ccc(-c2cc(-c3ccco3)c(C#N)c(=O)[nH]2)cc1 | 18.1%
76 | Cc1ccc(NC(=O)COC(=O)c2nn(C)cc2Cl)cc1 | -9.06%
77 | COc1ccc(OC)c(N(CC(=O)Nc2ccccc2C(=O)NCc2ccco2)S(C)(=O)=O)c1 | -18.6%
78 | Cc1cc(C)nc(N2CCCC(C(=O)NCc3cccs3)C2)n1 (centres unmarked) | -7.77%
79 | CCCCOc1ccccc1C1C(C(N)=O)=C(C)Nc2nnnn21 (centres unmarked) | 18.8%
80 | CN1C(=O)N(C)C2C1NC(=O)N2C (centres unmarked) | -0.412%
81 | Cc1ccc(NC(=O)C2CCCN2S(=O)(=O)c2cccc3cccnc23)c(C)c1 (centres unmarked) | -15%
82 | Brc1ccc(C[n+]2ccccc2)cc1.[Br-] | -9%
83 | COc1ccc(NC(=O)CNCCC2=CCCCC2)cc1 | 7.2%
84 | Cc1c(C)n(C(=O)CN2CCN(c3ccccn3)CC2)c2ccccc12 | -15.3%
85 | O=C(COc1cccc(Br)c1)N/N=C1\CCCc2ccccc21 | 5.63%
86 | CCOc1cc(Br)cc(C(c2c(C(=O)O)[nH]c3ccccc23)c2c(C(=O)O)[nH]c3ccccc23)c1O | 18.8%
87 | Cc1ccc(C2=NS(=O)(=O)N(C)C(C(=O)NCc3ccc(F)cc3)=C2)cc1 | -28.4%
88 | CNC(C)C(=O)NC(C(=O)N1CCCC1C(=O)Nc1ccc2ncccc2c1)C(C)C.O=CO (centres unmarked) | 9.98%
89 | NC(=O)COC(=O)/C=C/c1ccccc1[N+](=O)[O-] | 0.723%
